PubChem BioAssay AID463173 (ICCB-Longwood Screening Facility, Harvard Medical School, 2010)
Screen size: about 52,000 compounds; about 1,700 (3.3%) were called active. No stated cut-off is given here; in the data, active means survival mostly below about 52% (no sharp cut-off); inactive means mostly above about 56%. The list shows a part of the results.

These compounds were tested on Wild type (assay: growth inhibition of S. aureus wild type versus tarO mutant, primary screen, teichoic acid synthesis inhibitors, RN4220, OD600 (AID 463173)). Settings: S. aureus RN4220 wild type/DeltatarO growth, OD600, 18 h, stronger effect = lower value, screened at 18.75 µg/mL (by protocol).
`COc1nc(-c2ccc(C)cc2)ccc1-c1noc(-c2ccccc2Br)n1` was tested, and the survival was active: 2%.
`Cc1ccc(C(c2nnnn2Cc2ccccc2)N2CCC(C)CC2)cc1` (centres undefined) was tested, and the survival was inactive: 101%.
In the case of `O=c1c2cccnc2n(Cc2ccccc2F)c(=O)n1Cc1ccccc1Cl`, the survival is reported as inactive: 86%.
`Cc1ccc(C)c(N2CCN(C(=O)CN3CCSc4ccc(S(=O)(=O)N(C)C)cc43)CC2)c1` was tested, and the survival was inactive: 73%.
`CC(=O)Nc1nonc1-c1nnc(SCC(=O)Nc2cc(C)cc(C)c2)n1C` was tested, and the survival was inactive: 84%.
`COc1ccc(-c2nc3sc(-c4ccc(OC)cc4)nc3s2)cc1` was tested, and the survival was inactive: 109%.
For `COc1cccc(NC(=O)/C(C#N)=C\c2cn(Cc3ccc(C)cc3)c3ccccc23)c1`, the survival was inactive: 105%.
In the case of `O=C(c1ccc(C(F)(F)F)cc1)N1CCC(c2nc(-c3ccc(S(=O)(=O)N4CCCC4)cc3)no2)CC1`, the survival is reported as inactive: 87%.
`Cc1oc2ncn(CC(C)C)c(=O)c2c1C(=O)N1CCN(c2ccc(F)cc2)CC1` was tested, and the survival was inactive: 57%.
For `COc1ccccc1CNc1ccc(-c2nc(C)no2)cc1[N+](=O)[O-]`, the survival was inactive: 69%.
With `COc1ccc(-c2oc3ncn4nc(-c5ccccc5Br)nc4c3c2-c2ccc(OC)cc2)cc1` the survival was inactive: 60%.
In the case of `Cc1ccc2[nH]c3c(=O)n(CC(=O)N(C)c4cc(Cl)ccc4C)ncc3c2c1`, the survival is reported as inactive: 67%.
For `O=C(c1ccc2c(c1)N(Cc1cccc(Cl)c1)C(=O)c1ccccc1S2(=O)=O)N1CCCCC1`, the survival was inactive: 79%.
For `Cc1ccc(C)c(NC(=O)Cn2cc(C(=O)C3CCCCC3)c3ccccc32)c1`, the survival was inactive: 67%.
With `COc1cccc(NC(=O)c2oc3ccccc3c2NC(=O)c2ccc(C(F)(F)F)cc2)c1` the survival was inactive: 60%.
`O=C(CN1CCCN(Cc2ccc(Cl)cc2)S1(=O)=O)Nc1ccccc1F` was tested, and the survival was inactive: 53%.
With `COc1cccc2c1Oc1ncccc1N(C(=O)CCC(=O)NCc1ccc(N(C)C)cc1)C2` the survival was inactive: 65%.
With `COc1ccc(-n2c(=O)c3c4c(sc3n(Cc3ccccc3)c2=O)CN(C(C)=O)CC4)cc1OC` the survival was inactive: 84%.
`COc1ccccc1NC(=O)c1ccc2c(Cl)c3c(nc2c1)CCCC3` was tested, and the survival was inactive: 19%.
`CCOC(=O)c1c(C)[nH]c(C)c1S(=O)(=O)N1CCC(C(=O)N2CCN(c3ccc(Cl)cc3)CC2)CC1` was tested, and the survival was inactive: 68%.
With `CCOc1ccc(NC(=O)N2CC=C(c3c[nH]c4ccccc34)CC2)cc1` the survival was inactive: 75%.
`CC1=C(c2ccc(C)c(C)c2)S(=O)(=O)N=C1N1CCC(C(=O)NCCc2ccc(Cl)cc2)CC1` was tested, and the survival was inactive: 132%.
With `O=C(c1cc(=O)c2cc(Cl)ccc2o1)N(Cc1ccccc1)C1CCS(=O)(=O)C1` (centres undefined) the survival was inactive: 86%.
With `COc1cc(Cl)c(C)cc1NC(=O)c1cc2ccc3cccnc3c2[nH]1` the survival was inactive: 73%.
With `CC(=O)OCc1cnc(C)c2oc(=O)c(C(=O)Nc3cccc(F)c3)cc12` the survival was inactive: 120%.
In the case of `Cc1ccc(-n2ncc3c(NCCCc4ccccc4)ncnc32)cc1`, the survival is reported as inactive: 69%.
In the case of `Cc1nc(N2CCCC2)c2c(C(=O)Nc3cccc(Cl)c3C)c(C)oc2n1`, the survival is reported as inactive: 45%.
With `COc1cc2[nH]c(=O)n(Cc3ccc(C(=O)NCc4ccccc4)cc3)c(=O)c2cc1OC` the survival was inactive: 71%.
For `Cc1nc(SCC(=O)N2c3ccccc3CCc3ccccc32)n[nH]1`, the survival was inactive: 98%.
In the case of `COc1ccc(NC(=O)CSc2nc3nc(C)c(Cc4ccc(C)cc4)c(C)n3n2)cc1OC`, the survival is reported as inactive: 93%.
For `COc1ccc(Cl)cc1-n1nnc(-c2nc(-c3ccc4c(c3)OCO4)no2)c1C`, the survival was inactive: 71%.
`CCCNC(=O)C1CCC(Cn2c(=O)c3sccc3n(Cc3ccccc3C)c2=O)CC1` (centres undefined) was tested, and the survival was inactive: 70%.
With `COc1ccccc1NC(=O)C(=O)c1cc(C)n(-c2ccccc2F)c1C` the survival was inactive: 101%.
In the case of `Cc1cccc(C)c1NC(=O)c1csc2c1CCCC2`, the survival is reported as inactive: 100%.
With `Cc1ccc(NC(=O)Nc2nnc(SCC(=O)Nc3ccc(F)cc3F)s2)cc1` the survival was inactive: 74%.
For `CC(C)(C)NC(=O)CSc1nnc(-c2cccs2)o1`, the survival was inactive: 106%.
With `CCc1ccc(NC(=O)c2cc(S(=O)(=O)N3CCCCCC3)ccc2F)cc1` the survival was inactive: 124%.
With `CCCCN1CC(c2nc3ccccc3n2CCCCOc2ccc(C)cc2C)CC1=O` (centres undefined) the survival was active: -5%.
With `Cn1ccc(-c2ccccc2)n1` the survival was inactive: 110%.
With `Cc1ccc(-n2ncc3c(NCCCN4CCOCC4)ncnc32)cc1Cl` the survival was inactive: 83%.
`O=C(NCCCc1nc2ccccc2n1Cc1cccc(Cl)c1)c1ccco1` was tested, and the survival was inactive: 84%.
With `COc1cc(Cl)c(C)cc1NC(=O)c1cnn(-c2ccc(C)cc2)c1-n1cccc1` the survival was inactive: 65%.
With `c1coc(-c2nc3ccccn3c2Nc2ccc3c(c2)OCCO3)c1` the survival was inactive: 70%.
For `CCOc1ccc(NC(=O)CCS(=O)(=O)c2ccc3nc(C)sc3c2)cc1`, the survival was inactive: 98%.
In the case of `Cc1ccc(C)n1-c1ccc(NC(=O)c2ccccc2)cc1`, the survival is reported as inactive: 114%.
For `COc1ccc(-n2c(=O)c3sc4ccccc4c3n(CC(=O)N3CCCC3)c2=O)cc1`, the survival was inactive: 92%.
For `Cc1nc(-c2ccc(C)c(N3CCN(C(=O)Nc4ccc(Br)cc4)CC3)c2)no1`, the survival was active: -1%.
In the case of `CCn1cc(S(=O)(=O)c2cccc(C)c2)c(=O)c2cc(F)c(N3CCCCC3C)cc21` (centres undefined), the survival is reported as inactive: 70%.
With `Cc1ccc(Cn2c(SCc3ccc(C(=O)NCCc4ccccc4)cc3)nc3ccncc32)cc1` the survival was inactive: 78%.
With `COc1ccc(-n2c(SCC(=O)N3CCCc4ccccc43)nc3c([nH]c4ccccc43)c2=O)cc1` the survival was inactive: 78%.
With `COc1ccc(-c2cn3c(n2)sc2cc(C(=O)Nc4ccccc4F)ccc23)cc1` the survival was inactive: 70%.
For `CS(=O)(=O)c1nc(-c2ccc(Br)cc2)n[nH]1`, the survival was inactive: 116%.
For `CN(C)CCNC(=O)c1ccc2nc(CCc3ccccc3)oc2c1`, the survival was inactive: 73%.
`CCc1ccc2occ(CC(=O)Nc3c(C(=O)Nc4ccc(Cl)cc4)oc4ccccc34)c2c1` was tested, and the survival was inactive: 83%.
With `Cc1cc(-c2ccc(C)c(S(=O)(=O)N(Cc3cccs3)C(C)C)c2)on1` the survival was inactive: 65%.
For `COc1ccc(NC(=O)/C(C#N)=C/c2ccc(C)o2)cc1`, the survival was inactive: 73%.
With `CC(C)(C)OC(=O)N1CCC(c2c(C(=O)Nc3ccc4c(c3)OCO4)cnn2-c2ccc(F)cc2F)CC1` the survival was inactive: 82%.
For `Cc1ccc(CNC(=O)C(=O)NCC(c2cccs2)S(=O)(=O)c2cccs2)cc1` (centres undefined), the survival was inactive: 68%.
In the case of `CC1CCCN(c2ncnc3c2nc2n3CCCCC2)C1` (centres undefined), the survival is reported as inactive: 83%.
For `CN(C)c1ccc(CNc2nc(-c3ccco3)nn2S(C)(=O)=O)cc1`, the survival was inactive: 84%.
With `CCC1CCCCN1C(=O)c1sc2nc(C)cc(C)c2c1N` (centres undefined) the survival was inactive: 109%.
With `CCOC(=O)c1ccc(NC(=O)c2cnc(N3CCCC3)nc2C)cc1` the survival was inactive: 71%.
In the case of `CCSc1nc2c([nH]c3ccccc32)c(=O)n1-c1ccc(OC)cc1`, the survival is reported as inactive: 64%.
With `O=C(O)CCCC(=O)N1CCc2cc(S(=O)(=O)NCc3ccccc3)ccc21` the survival was inactive: 98%.
`Cc1cccc(NC(=O)CCNS(=O)(=O)c2ccc3c(c2)CCCC(=O)N3)c1C` was tested, and the survival was inactive: 80%.
`CCOC(=O)c1[nH]c2c(c1Cc1ccccc1)C(=O)CC(c1ccc(OC)cc1)C2` (centres undefined) was tested, and the survival was inactive: 94%.
For `Cc1ccccc1Cn1c(=O)n(CCCCC(=O)NCCc2ccccc2)c(=O)c2ccccc21`, the survival was inactive: 103%.
In the case of `CCc1ccc(NC(=O)CSC2=Nc3ccccc3C3=NC(CC(=O)NCc4ccc5c(c4)OCO5)C(=O)N23)cc1` (centres undefined), the survival is reported as inactive: 153%.
With `CCCC(=O)Nc1ccc(NC(=O)c2sc3ccccc3c2Cl)cc1` the survival was inactive: 128%.
In the case of `CCc1ccc2nc(N(Cc3cccnc3)C(=O)c3cccs3)sc2c1`, the survival is reported as inactive: 127%.
In the case of `CCn1c(SCC(=O)Nc2nc(C)cs2)nnc1C(C)Oc1ccccc1` (centres undefined), the survival is reported as inactive: 82%.
`COCCn1c(SCC(=O)c2ccccc2)nc2cc(C(=O)NC3CCCC3)ccc2c1=O` was tested, and the survival was inactive: 76%.
With `COc1ccc(NC(=O)CN(c2cccc(C)c2C)S(=O)(=O)c2ccccc2)cc1OC` the survival was inactive: 72%.
With `CCOC(=O)CSC1=Nc2ccccc2C2=NC(CCC(=O)NCc3ccccc3)C(=O)N12` (centres undefined) the survival was inactive: 73%.
`CCc1ccc2[nH]c3nc(SCC(=O)OC(C)C)nnc3c2c1` was tested, and the survival was inactive: 107%.
For `COc1ccc(C(=O)N2CCN(C(=O)COc3ccc(Br)cc3)CC2)cc1OC`, the survival was inactive: 80%.
With `Cc1cc2c(cc1C)C(c1cccc(OC(C)C)c1)CC(=O)N2` (centres undefined) the survival was inactive: 82%.
In the case of `CCCCN(C)CCCNC(=O)Cn1nc(CC)n2c(cc3sc(C)cc32)c1=O`, the survival is reported as inactive: 84%.
With `CC1CN(C(=O)N2CCC(C(=O)NCCC3=CCCCC3)CC2)c2ccccc2O1` (centres undefined) the survival was inactive: 110%.
With `COc1cc2c(=O)c(S(=O)(=O)c3ccc(C)cc3)cn(Cc3cccc(C)c3)c2cc1OC` the survival was inactive: 101%.
With `O=C(CSc1nnc(-c2cccs2)o1)Oc1ccc(Cl)cc1` the survival was inactive: 89%.
In the case of `CCCCNC(=O)C1CCCN(c2nnc(C)c3c(C)n(-c4ccc(Cl)cc4)nc23)C1` (centres undefined), the survival is reported as inactive: 73%.
In the case of `CC(=O)N1CCN(c2ccc(NC(=O)COc3ccc(Cl)c(C)c3)cc2)CC1`, the survival is reported as inactive: 106%.
For `CSc1cccc(NC(=O)C2CCN(S(=O)(=O)c3ccc4[nH]c(=O)ccc4c3)CC2)c1`, the survival was inactive: 101%.
With `CC(=O)c1ccc(NC(=O)CSc2nccn2Cc2ccco2)cc1` the survival was inactive: 72%.
In the case of `CC(C)c1ccc(S(=O)(=O)Nc2ccc(O)c(Sc3nc4ccccc4s3)c2)cc1`, the survival is reported as active: 0%.
With `CCOC(=O)C1(C)C=C(Nc2ccc(C)cc2)C(=O)N1c1ccccc1` (centres undefined) the survival was inactive: 77%.
`CCN(CC)CCN(C(=O)c1ccc(C(=O)OC)cc1)c1nc2ccc(Cl)cc2s1` was tested, and the survival was active: -6%.
In the case of `COc1ccc(N(CC(O)CN2CCCC2)S(=O)(=O)c2ccccc2)cc1` (centres undefined), the survival is reported as inactive: 125%.
